# According to the supplement of paper PMC8728848:
# The other results are listed elsewhere or left out.
# How the values were obtained:
# Test in all cases: glycan array binding signal (z-score within array); higher = stronger binding
# Details in all cases: glycan notation: IUPAC condensed, linker removed
# [1] = target: GlcNAc(b1-4)GlcNAc(b1-4)GlcNAc(b1-4)GlcNAc(b1-4)GlcNAc
# Summary of the method: (§1)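 Glycan array binding is given as a within-array Z-score, which can be read as non-binding when negative. The arrays, 3228 of them, came from the Consortium for Functional Glycomics database and were retained only where the protein sequence was available. Z-scores were averaged across arrays of the same protein sequence at different concentrations or buffers and across linkers.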
# [2] = target: GlcNAc(b1-4)GlcNAc(b1-4)GlcNAc(b1-4)GlcNAc(b1-4)GlcNAc(b1-4)GlcNAc
# Summary of the method: as §1
# [3] = target: GlcNAc(b1-4)[GlcNAc(b1-6)]GalNAc
# Summary of the method: as §1
# [4] = target: GlcNAc(b1-6)Gal(b1-4)GlcNAc
# Summary of the method: as §1
# GlcNAc(b1-6)GalNAc = target: GlcNAc(b1-6)GalNAc
# Summary of the method: as §1
# [5] = target: GlcNAc6S(b1-3)Gal(b1-4)GlcNAc
# Summary of the method: as §1
# Kdn(a2-3)Gal(b1-3)GalNAc = target: Kdn(a2-3)Gal(b1-3)GalNAc
# Summary of the method: as §1
# Kdn(a2-3)Gal(b1-3)GlcNAc = target: Kdn(a2-3)Gal(b1-3)GlcNAc
# Summary of the method: as §1
# Kdn(a2-3)Gal(b1-4)Glc = target: Kdn(a2-3)Gal(b1-4)Glc
# Summary of the method: as §1
# Kdn(a2-3)Gal(b1-4)GlcNAc = target: Kdn(a2-3)Gal(b1-4)GlcNAc
# Summary of the method: as §1
# [6] = target: Kdn(a2-3)Gal(b1-4)[Fuc(a1-3)]GlcNAc
# Summary of the method: as §1
# Kdn(a2-6)Gal(b1-4)GlcNAc = target: Kdn(a2-6)Gal(b1-4)GlcNAc
# Summary of the method: as §1
# [7] = target: Man(a1-2)Man(a1-2)Man(a1-3)Man
# Summary of the method: as §1
# [8] = target: Man(a1-2)Man(a1-2)Man(a1-6)[Man(a1-3)]Man
# Summary of the method: as §1
# Man(a1-2)Man(a1-3)Man = target: Man(a1-2)Man(a1-3)Man
# Summary of the method: as §1
# [9] = target: Man(a1-2)Man(a1-3)[Man(a1-2)Man(a1-6)]Man
# Summary of the method: as §1
# [10] = target: Man(a1-2)Man(a1-3)[Man(a1-2)Man(a1-6)]Man(a1-6)[Man(a1-2)Man(a1-2)Man(a1-3)]Man
# Summary of the method: as §1
# [11] = target: Man(a1-2)Man(a1-3)[Man(a1-2)Man(a1-6)]Man(a1-6)[Man(a1-2)Man(a1-2)Man(a1-3)]Man(b1-4)GlcNAc(b1-4)GlcNAc
# Summary of the method: as §1
# [12] = target: Man(a1-2)Man(a1-3)[Man(a1-6)]Man(a1-6)[Man(a1-2)Man(a1-3)]Man(b1-4)GlcNAc(b1-4)GlcNAc
# Summary of the method: as §1
# [13] = target: Man(a1-2)Man(a1-6)[Man(a1-3)]Man(a1-6)[Man(a1-2)Man(a1-2)Man(a1-3)]Man
# Summary of the method: as §1
# [14] = target: Man(a1-2)Man(a1-6)[Man(a1-3)]Man(a1-6)[Man(a1-2)Man(a1-2)Man(a1-3)]Man(b1-4)GlcNAc(b1-4)GlcNAc
# Summary of the method: as §1
# Man(a1-3)[Man(a1-6)]Man = target: Man(a1-3)[Man(a1-6)]Man
# Summary of the method: as §1
# [15] = target: Man(a1-3)[Man(a1-6)]Man(a1-6)[Man(a1-2)Man(a1-3)]Man(b1-4)GlcNAc(b1-4)GlcNAc
# Summary of the method: as §1
# [16] = target: Man(a1-3)[Man(a1-6)]Man(a1-6)[Man(a1-3)]Man
# Summary of the method: as §1
# [17] = target: Man(a1-3)[Man(a1-6)]Man(a1-6)[Man(a1-3)]Man(b1-4)GlcNAc(b1-4)GlcNAc
# Summary of the method: as §1
# [18] = target: Man(a1-3)[Man(a1-6)]Man(b1-4)GlcNAc(b1-4)GlcNAc
# Summary of the method: as §1
# [19] = target: Man(a1-3)[Man(a1-6)]Man(b1-4)GlcNAc(b1-4)[Fuc(a1-6)]GlcNAc
# Summary of the method: as §1
# Man(a1-6)Man = target: Man(a1-6)Man
# Summary of the method: as §1
# Man(b1-4)GlcNAc = target: Man(b1-4)GlcNAc
# Summary of the method: as §1
# MurNAc(b1-4)GlcNAc = target: MurNAc(b1-4)GlcNAc
# Summary of the method: as §1
# Neu5Ac(a2-3)Gal = target: Neu5Ac(a2-3)Gal
# Summary of the method: as §1
# [20] = target: Neu5Ac(a2-3)Gal(b1-3)GalNAc
# Summary of the method: as §1
# [21] = target: Neu5Ac(a2-3)Gal(b1-3)GalNAc(b1-3)Gal(a1-4)Gal(b1-4)Glc
# Summary of the method: as §1
# [22] = target: Neu5Ac(a2-3)Gal(b1-3)GalNAc(b1-4)Gal(b1-4)Glc
# Summary of the method: as §1
# [23] = target: Neu5Ac(a2-3)Gal(b1-3)GalNAc(b1-4)[Neu5Ac(a2-3)]Gal(b1-4)Glc
# Summary of the method: as §1
# [24] = target: Neu5Ac(a2-3)Gal(b1-3)GalNAc(b1-4)[Neu5Ac(a2-8)Neu5Ac(a2-3)]Gal(b1-4)Glc
# Summary of the method: as §1
# [25] = target: Neu5Ac(a2-3)Gal(b1-3)GalNAc6S
# Summary of the method: as §1
binder,measurement,setting,value
"SGC, Q9M345 (protein) QNLNFTYNGFHPPLTDISLQGLATVTPNGLLKLTNTSVQKTGHAFCTERIRFKDSQNGNVSSFSTTFVFAIHSQIPTLSGHGIAFVVAPTLGLPFALPSQYIGLFNISNNGNDTNHIFAVEFDTIQSSEFGDPNDNHVGIDLNGLRSANYSTAGYRDDHDKFQNLSLISRKRIQVWIDYDNRSHRIDVTVAPFDSDKPRKPLVSYVRDLSSILLEDMYVGFSSATGSVLSEHFLVGWSFRLNGEAPMLSLSKLPKLPRFEPRRIS",glycan array binding signal (z-score),[1],-0.3
same,glycan array binding signal (z-score),[2],-0.345
same,glycan array binding signal (z-score),[3],-0.327
same,glycan array binding signal (z-score),[4],1.55
same,glycan array binding signal (z-score),GlcNAc(b1-6)GalNAc,-0.316
same,glycan array binding signal (z-score),[5],-0.273
same,glycan array binding signal (z-score),Kdn(a2-3)Gal(b1-3)GalNAc,-0.327
same,glycan array binding signal (z-score),Kdn(a2-3)Gal(b1-3)GlcNAc,-0.394
same,glycan array binding signal (z-score),Kdn(a2-3)Gal(b1-4)Glc,-0.361
same,glycan array binding signal (z-score),Kdn(a2-3)Gal(b1-4)GlcNAc,-0.334
same,glycan array binding signal (z-score),[6],-0.336
same,glycan array binding signal (z-score),Kdn(a2-6)Gal(b1-4)GlcNAc,-0.393
same,glycan array binding signal (z-score),[7],-0.36
same,glycan array binding signal (z-score),[8],-0.361
same,glycan array binding signal (z-score),Man(a1-2)Man(a1-3)Man,-0.388
same,glycan array binding signal (z-score),[9],-0.373
same,glycan array binding signal (z-score),[10],-0.354
same,glycan array binding signal (z-score),[11],-0.229
same,glycan array binding signal (z-score),[12],0.362
same,glycan array binding signal (z-score),[13],-0.391
same,glycan array binding signal (z-score),[14],-0.346
same,glycan array binding signal (z-score),Man(a1-3)[Man(a1-6)]Man,-0.303
same,glycan array binding signal (z-score),[15],0.245
same,glycan array binding signal (z-score),[16],-0.395
same,glycan array binding signal (z-score),[17],-0.293
same,glycan array binding signal (z-score),[18],-0.363
same,glycan array binding signal (z-score),[19],-0.336
same,glycan array binding signal (z-score),Man(a1-6)Man,-0.361
same,glycan array binding signal (z-score),Man(b1-4)GlcNAc,-0.359
same,glycan array binding signal (z-score),MurNAc(b1-4)GlcNAc,-0.38
same,glycan array binding signal (z-score),Neu5Ac(a2-3)Gal,-0.339
same,glycan array binding signal (z-score),[20],-0.36
same,glycan array binding signal (z-score),[21],-0.372
same,glycan array binding signal (z-score),[22],-0.393
same,glycan array binding signal (z-score),[23],-0.321
same,glycan array binding signal (z-score),[24],-0.342
same,glycan array binding signal (z-score),[25],-0.369
